Experimental data reported in paper PMC4336329 (PLoS ONE, 2015).
The whole screen tested about 310,000 compounds, of which about 2,200 (0.71%) showed an effect of 50% or more. Effects have a minus sign here. This is one part of the list.

Each compound was assayed against human ether-à-go-go-related gene (hERG) potassium channel (human, UniProt Q12809) (assay: primary screen, population patch clamp on CHO cells stably expressing hERG).
Chain of human ether-à-go-go-related gene (hERG) potassium channel (Q12809 whole entry, looked up): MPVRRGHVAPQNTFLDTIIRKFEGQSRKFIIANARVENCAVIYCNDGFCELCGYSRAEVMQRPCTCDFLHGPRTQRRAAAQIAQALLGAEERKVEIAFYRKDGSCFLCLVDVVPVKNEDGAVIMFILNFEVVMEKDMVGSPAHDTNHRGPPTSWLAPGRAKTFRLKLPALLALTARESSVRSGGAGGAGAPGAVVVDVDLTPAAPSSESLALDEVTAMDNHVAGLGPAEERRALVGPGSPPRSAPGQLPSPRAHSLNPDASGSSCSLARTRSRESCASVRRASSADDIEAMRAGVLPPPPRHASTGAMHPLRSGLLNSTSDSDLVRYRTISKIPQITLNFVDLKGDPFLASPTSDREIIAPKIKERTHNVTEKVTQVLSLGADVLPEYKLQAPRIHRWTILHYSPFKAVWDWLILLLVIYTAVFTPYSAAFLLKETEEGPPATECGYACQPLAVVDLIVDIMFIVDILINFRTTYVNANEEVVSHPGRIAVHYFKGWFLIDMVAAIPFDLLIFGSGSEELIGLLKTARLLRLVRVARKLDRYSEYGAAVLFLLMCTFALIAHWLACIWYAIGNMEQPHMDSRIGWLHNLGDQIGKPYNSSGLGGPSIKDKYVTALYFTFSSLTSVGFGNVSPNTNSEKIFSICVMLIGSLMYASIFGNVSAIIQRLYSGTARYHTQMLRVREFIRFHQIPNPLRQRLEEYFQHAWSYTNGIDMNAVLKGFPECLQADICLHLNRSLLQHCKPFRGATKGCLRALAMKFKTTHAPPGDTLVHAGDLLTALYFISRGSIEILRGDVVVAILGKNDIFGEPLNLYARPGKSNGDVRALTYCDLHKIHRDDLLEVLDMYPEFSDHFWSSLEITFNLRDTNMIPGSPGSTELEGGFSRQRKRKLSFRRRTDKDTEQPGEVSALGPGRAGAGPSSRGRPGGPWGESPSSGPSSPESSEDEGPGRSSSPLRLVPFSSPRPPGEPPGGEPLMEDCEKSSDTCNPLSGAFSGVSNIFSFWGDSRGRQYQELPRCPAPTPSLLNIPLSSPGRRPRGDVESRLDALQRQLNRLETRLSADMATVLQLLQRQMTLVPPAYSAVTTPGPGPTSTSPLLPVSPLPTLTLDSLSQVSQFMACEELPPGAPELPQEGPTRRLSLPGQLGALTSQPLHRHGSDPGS

Row | SMILES | hERG current change (%, negative = inhibition) at 1uM
1 | Cc1ccc(C(=O)NNC(=O)c2nn(-c3ccc(F)cc3)ccc2=O)cc1 | -1.61%
2 | O=C(c1ccccc1F)N(Cc1cccs1)C1CCS(=O)(=O)C1 (stereo not drawn) | 20.6%
3 | O=C(NCCO)/C(=C\c1ccc(Br)cc1)NC(=O)c1cccs1 | 6.96%
4 | CN(CCOc1ccccc1)C(=O)CCc1c[nH]c2ccccc12.Cl | 7.06%
5 | O=C(NCc1ccccc1)C1=C[C@H](c2csc3ccccc23)C[C@H](OCc2ccc(CO)cc2)O1 | 9.99%
6 | COC(=O)C1=C(c2ccc(F)cc2F)C[C@@H]2CC[C@H]1N2C(=O)N1CCCCC1 | 9.38%
7 | COc1ccc(N(CC(=O)N2CCCC2)S(=O)(=O)c2ccc(NC(C)=O)cc2)cc1 | 10.7%
8 | Oc1ccc(/C=N/Nc2ccc(Cl)nn2)cc1O | 6.44%
9 | CCN1C(=O)[C@H]2[C@@H](c3ccc(C)cc3)N3C(=O)N(c4cccc(Cl)c4)C(=O)[C@@]3(Cc3ccc(Cl)cc3)[C@H]2C1=O | 7.88%
10 | O=C(N[C@H](CO)Cc1ccccc1)c1ccco1 | 9.98%
11 | CCOc1ccc(S(=O)(=O)NCCC(=O)N2CCN(c3ncccn3)CC2)cc1 | 6.1%
12 | O=[N+]([O-])c1cnc(Nc2ccc(Cl)cn2)c([N+](=O)[O-])c1 | 10.2%
13 | CCOc1cc(/C=C2\CCC/C(=C\c3cc(Cl)c(O)c(OCC)c3)C2=O)cc(Cl)c1O | 10%
14 | CCO[C@@H]1OC(C(N)=O)=C[C@H](c2ccc(C(F)(F)F)cc2)[C@H]1CCCO | 9.38%
15 | COc1ccc(N2CCN(S(=O)(=O)c3c(C)nc4scc(C)n4c3=O)CC2)cc1 | 7.01%
16 | COC(=O)c1ccccc1N=Cc1c(O)[nH]c(=O)[nH]c1=O | 5.64%
17 | C#CCOCCOCCOCCNc1nc(N2CCN(C(=O)Cn3cc(CCC[NH+]=C(N)N)nn3)CC2)nc(N2CCN(C(=O)[C@H](CCCC[NH3+])n3cc(CC(C)O)nn3)CC2)n1.[Cl-] (stereo partly drawn) | 22.6%
18 | CCOC(=O)C(Cc1ccccc1)C(=O)Nc1nccs1 (stereo not drawn) | 5.87%
19 | O=C(O)c1ccccc1NS(=O)(=O)c1ccc2ccccc2c1 | 19.4%
20 | Cc1cc(=O)oc2cc(OCC(=O)N3CCN(C(=O)C4COc5ccccc5O4)CC3)ccc12 (stereo not drawn) | 0.205%
21 | CCOc1ccc2nc(SCC(=O)NCc3ccc4c(c3)OCO4)[nH]c2c1 | -7.38%
22 | O=C(COC(=O)c1ccc(S(=O)(=O)Nc2ccccc2)cc1)NCC1CCCO1 (stereo not drawn) | 8.89%

Row | SMILES | hERG current change (%, negative = inhibition) at 1uM
23 | CC(C)(C)N1CSC(=S)N(Cc2ccccc2)C1 | 9.11%
24 | CCOc1ccc(CCNC(=O)COC(=O)Cc2ccc(OC)c(OC)c2)cc1OCC | 11.3%
25 | Cn1cncc1C#Cc1ccc2cc(C(C)(C)O)oc(=O)c2c1 | 15.6%
26 | Cc1ccc(C(=O)NC(C)c2ccccc2)cc1S(=O)(=O)N1CCOCC1 (stereo not drawn) | 0.385%
27 | Cc1cccc(C(C)C)c1NC(=O)COC(=O)COc1ccc2c(C)cc(=O)oc2c1 | 17.2%
28 | O=C(NCCCn1ccnc1)C(=O)NC1CCCCC1 | 4.36%
29 | CC1CCCN(c2c3c(nc4ccccc24)CCCC3)C1 (stereo not drawn) | -12.7%
30 | COc1ccccc1N(CN1CCCC1=O)C(=O)c1c(F)cccc1Cl | 2.96%
31 | CCOc1ccc2[nH]cc(S(=O)(=O)c3ccc(C)cc3)c(=O)c2c1 | 8.2%
32 | CCOc1cc(Br)c(COc2ccc(C)nc2[N+](=O)[O-])cc1OCC | 17.9%
33 | Cc1ccccc1NC(=O)CC(C)S(=O)(=O)c1ccc2c(c1)NC(=O)CO2 (stereo not drawn) | -5.76%
34 | Cc1ccc(O)c(C(=O)c2cc(C#N)c(=O)n(C(C)c3ccccc3)c2)c1 (stereo not drawn) | 7.69%
35 | COc1cccc(N=Nc2c(O)[nH]c(=S)[nH]c2=O)c1 | 9.36%
36 | COc1ccc(C(=O)NC2CC(C)(C)Cc3c2cnn3-c2ccccc2)c(OC)c1 (stereo not drawn) | 12.8%
37 | O=C(CCN1C(=O)c2ccccc2C1=O)C1=NN[C@@H]2C(=O)N(c3ccc4c(c3)OCCO4)C(=O)[C@H]12 | 7.8%
38 | O=C(O)/C=C/C(=O)NCCc1cccc(Cl)c1 | 6.17%
39 | CC(=O)NS(=O)(=O)c1ccc(NC(=O)/C=C/c2ccc(C)o2)cc1 | 11.8%
40 | CCCCn1c(SCC(=O)c2ccc3c(c2)NC(=O)CO3)nc2cc(S(N)(=O)=O)ccc21 | 14.4%
41 | CC1CCCC(N2C(=O)NC(NC(=O)c3ccco3)(C(F)(F)F)C2=O)C1C (stereo not drawn) | 7.8%
42 | O=C(O)c1ccc(COc2ccccc2[N+](=O)[O-])o1 | 13.1%
43 | COc1ccc(/C=C(\C#N)C(=O)OCC(=O)NC(=O)NCCC(C)C)cc1 | 7.16%
44 | Cn1cccc1/C=N/NC(=O)c1ccn[nH]1 | 8.24%

Row | SMILES | hERG current change (%, negative = inhibition) at 1uM
45 | Cc1cc2c(cc1C)N(Cc1ccc(Cl)cc1)C1=NCCCN12 | -28.4%
46 | CS(=O)(=O)c1[nH]nc(-c2ccccc2)c1C#N | 13.2%
47 | CCOc1ccc(C(=O)Nc2cccc(SC)c2)cc1 | 4.95%
48 | CC(=O)Oc1ccc2c(=O)c(Oc3ccccc3)coc2c1OC(C)=O | 12.6%
49 | Cc1ccccc1NC(=S)NC(NC(=O)C(C)(C)C)C(Cl)(Cl)Cl (stereo not drawn) | -14.3%
50 | Cc1ccc(N2CC(C(=O)NCCS(=O)(=O)N3CCN(c4ccc(F)cc4)CC3)CC2=O)cc1 (stereo not drawn) | 6.63%
51 | CCCCCCc1c(O)nc(SCCN2CCOCC2)[nH]c1=O.Cl | 5.78%
52 | N#Cc1c(N)sc2c1CCCCCC2 | 2.12%
53 | CNC(=S)N/N=C/c1c(C)nn(-c2ccccc2)c1Cl | 1.87%
54 | CC(C)N1CCN(S(=O)(=O)c2ccccc2)CC1.O=C(O)C(=O)O | 9.1%
55 | Cc1ccc(NC(=O)c2ccc(C#CC3(O)CCCCC3)cc2)cc1C | 6.93%
56 | COc1ccc(CN=C2NN=C(c3ccc(Cl)cc3)CS2)cc1 | 10.2%
57 | O=C(Nc1ccc2c(c1)OCO2)C(c1ccccc1)N1CCCCC1 (stereo not drawn) | 8.78%
58 | CCOc1ccc(C2c3[nH]c4ccccc4c3CCN2Cc2cccn2-c2ncccn2)cc1 (stereo not drawn) | -12.3%
59 | COCCn1c(SCC(=O)NCCc2ccc(OC)c(OC)c2)nc2c([nH]c3ccccc32)c1=O | 7.66%
60 | Cc1nc(NC(=S)NC(=O)c2cncc(Br)c2)ccc1Br | 12.9%
61 | CCOc1cccc(/C=N/NC(=O)c2cccnc2)c1O | 11.4%
62 | CCC1CC2CC(NC(C)=O)C1C2 (stereo not drawn) | 6.29%
63 | COc1ccc(CN2CN(C(C)C)CSC2=S)cc1 | -3.08%
64 | O=C(NC1CCCCC1)Oc1ccccc1 | 16%
65 | CC1(C)Cc2c(c(N3CCOCC3)nc3snc(NC(=O)c4ccccc4)c23)CO1 | -3.27%
66 | Cc1nn(C)cc1N1C(=O)c2cccc3c(N)ccc(c23)C1=O | 14.4%

Row | SMILES | hERG current change (%, negative = inhibition) at 1uM
67 | Cc1ccsc1C(=O)NC1CCCCC1C (stereo not drawn) | -1.48%
68 | Br.CC(C)(C)C(=O)Cn1c(=N)n(Cc2ccccc2Cl)c2ccccc21 | -14%
69 | O=C(Nc1nnc(SCc2c(Cl)cccc2Cl)s1)c1ccc2ncsc2c1 | 7.63%
70 | Cc1ccc(Cn2c(N/N=C/c3ccncc3)nc3c2c(=O)n(C)c(=O)n3C)cc1 | 4.52%
71 | Cc1ccc(C)c(S(=O)(=O)N2CCN(C(=O)c3ccnn3C)CC2)c1 | 3.12%
72 | CSc1nnc2c3cc(F)ccc3n(Cc3ccccc3)c2n1 | 7.64%
73 | CSc1ccccc1NS(=O)(=O)c1cccc2nonc12 | 7.17%
74 | Cn1c(=O)c2cc(S(=O)(=O)Nc3ccc4c(c3)OCO4)ccc2n(C)c1=O | -0.528%
75 | Cc1ccc(-c2nc(N(C)C3CCN(C)CC3)c3ccccc3n2)cc1 | 10.1%
76 | OC(CNCc1ccccc1Cl)COc1ccc(F)cc1 (stereo not drawn) | 6.53%
77 | CC(C)(C)OC(=O)N[C@@H](Cc1ccccc1)c1nnc(SCC(N)=O)o1 | 3.15%
78 | C=C(C)COc1ccc2c3c(c(=O)oc2c1OCC(=C)C)CCC3 | 8.64%
79 | Cc1cc(C)c2nc(NC(=O)C3CCCO3)sc2c1 (stereo not drawn) | 1.43%
80 | O=C(Cn1c2[n+](c3ccc(C(F)(F)F)cc31)CCCCC2)Nc1ccccc1.[Cl-] | 10.3%
81 | Cc1cccc2cc(CN(CCCN3CCOCC3)Cc3nnnn3C(C)(C)C)c(=O)[nH]c12 | 2%
82 | Cc1nn(-c2ccccc2)nc1CNC(=O)C(C)Cc1ccccc1 (stereo not drawn) | 23.3%
83 | CCCc1nnc(NC(=O)COc2ccc3c(c2)OCO3)s1 | 14.2%
84 | N#CC12CNCC1CN=N2 (stereo not drawn) | 14.4%
85 | Cc1ccc(NS(=O)(=O)c2cc(C(=O)N3CCc4ccccc4C3)ccc2Cl)cc1 | 10.2%
86 | Cc1cc(NC(=O)CS(=O)(=O)c2ccc(Cl)cc2)no1 | 18%
87 | Cl.OC(CNC1CCCC1)COc1c(F)cc(Br)cc1F (stereo not drawn) | -2.28%
